In all, about 33,000 sequences were measured (“E-score (-0.5 to 0.5)”: median about -0.012, highest 2% from about 0.29 on). This is one part of the list.
What follows are sequences tested against T1, Ybr033w (UniProt P38073) (assay: PBM E-score (8-mer binding enrichment) (E-score (-0.5 to 0.5)); higher = stronger / more preferred TF binding; most listed sequences are background and not binding sites). Settings: protein concentration: 200 nM; construct: GST-full length.
T1 sequence: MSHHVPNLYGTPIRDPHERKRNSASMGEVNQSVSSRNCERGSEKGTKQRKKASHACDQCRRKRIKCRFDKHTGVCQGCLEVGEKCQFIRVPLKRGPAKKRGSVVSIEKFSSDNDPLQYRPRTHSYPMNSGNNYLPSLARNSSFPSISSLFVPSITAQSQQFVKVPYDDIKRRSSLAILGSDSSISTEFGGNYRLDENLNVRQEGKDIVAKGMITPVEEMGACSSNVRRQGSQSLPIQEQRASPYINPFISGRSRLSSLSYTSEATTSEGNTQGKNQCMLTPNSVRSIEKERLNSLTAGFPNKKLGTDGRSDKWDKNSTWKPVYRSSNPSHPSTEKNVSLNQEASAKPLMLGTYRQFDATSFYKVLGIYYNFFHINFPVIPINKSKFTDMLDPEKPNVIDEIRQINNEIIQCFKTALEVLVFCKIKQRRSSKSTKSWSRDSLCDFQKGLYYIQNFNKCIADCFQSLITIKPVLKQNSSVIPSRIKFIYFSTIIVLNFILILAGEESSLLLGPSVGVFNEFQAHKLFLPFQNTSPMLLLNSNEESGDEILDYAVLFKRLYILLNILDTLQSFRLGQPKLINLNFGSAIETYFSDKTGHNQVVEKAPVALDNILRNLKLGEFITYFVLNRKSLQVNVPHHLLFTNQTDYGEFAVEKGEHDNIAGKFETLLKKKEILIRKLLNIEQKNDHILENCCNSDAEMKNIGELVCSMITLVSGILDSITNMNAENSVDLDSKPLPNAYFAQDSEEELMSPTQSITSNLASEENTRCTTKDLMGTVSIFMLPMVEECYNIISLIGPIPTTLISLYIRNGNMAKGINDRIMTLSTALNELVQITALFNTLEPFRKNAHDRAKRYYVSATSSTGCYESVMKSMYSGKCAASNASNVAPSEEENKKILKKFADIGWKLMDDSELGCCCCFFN
Outline: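 PURExpress in vitro transcription/translation supplied GST-tagged yeast transcription factors, either full-length or DNA-binding domain. Applied at about 100-200 nM to universal all-10-mer Agilent arrays double-stranded by primer extension, the bound protein was detected with fluorescent anti-GST. E-scores, modified Wilcoxon-Mann-Whitney statistics, were given by the Universal PBM Analysis Suite to ungapped eight-base words pooled with their reverse complements after masliner normalisation.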

Row | Sequence | PBM E-score
1 | CGTCTGGA | -0.288
2 | AGCCATGC | -0.0872
3 | AACTTAGA | 0.0362
4 | AGATGGGG | -0.243
5 | AAGTGGAG | 0.215
6 | AATACAAT | 0.107
7 | AACGGTGA | -0.0975
8 | ATCCGTTC | 0.0406
9 | CACGACGA | -0.103
10 | CAAATTAA | 0.212
11 | ATGAGATC | 0.107
12 | CAAAACGA | 0.0643
13 | GAGGATCC | -0.076
14 | GTCTCGTA | -0.0206
15 | ACACATGC | -0.0705
16 | AATCATGC | -0.0625
17 | CTCAAGCA | -0.0241
18 | ATCACCTA | -0.0627
19 | TAAACAGA | 0.142
20 | CATTCTGC | 0.09
21 | AGGCACCA | 0.0136
22 | AATCGATA | 0.283
23 | ACCGTTAT | -0.128
24 | ACTCATCA | 0.0418
25 | CCTCCAAG | -0.176

Row | Sequence | PBM E-score
26 | ATTAACAA | 0.382
27 | GAACACCA | -0.0397
28 | AGAGCCCG | -0.213
29 | AATAGTTA | 0.225
30 | ACGCCTAC | -0.109
31 | GAATGACC | -0.0971
32 | CCTTCCGC | -0.263
33 | ACCCATCC | -0.181
34 | CATTAGTA | 0.204
35 | AAGTGGGG | -0.146
36 | GAGCAATA | 0.0978
37 | AGCACTTC | 0.0586
38 | TCGATAGA | 0.0992
39 | TCATCAAA | 0.0145
40 | TCGTTAAA | 0.104
41 | CACATCTC | 0.0841
42 | AGGATAAG | -0.0801
43 | CACCTGAG | -0.0721
44 | CGAATATC | 0.173
45 | GACCAGGA | -0.0704
46 | TGGGTGAA | 0.15
47 | GCGGCTAA | -0.0371
48 | ACAGGAAT | 0.209
49 | CGATCGAC | 0.0174
50 | ATTCAATA | 0.266

Row | Sequence | PBM E-score
51 | TAGCATGA | 0.111
52 | TATTCTAA | 0.262
53 | TTCATCAA | 0.184
54 | TTCGTCAA | 0.0948
55 | CCCCATGC | -0.226
56 | AAGAACGT | 0.135
57 | CTACTATC | 0.226
58 | ACGGGCAA | -0.22
59 | CAGACCCG | -0.0987
60 | ATCAGTAC | -0.0454
61 | GTCTAAAC | 0.179
62 | CAATTCAG | -0.169
63 | AAGCCAAC | -0.00357
64 | AATTATAG | 0.284
65 | GCGTATGA | 0.0532
66 | AACCAATG | 0.206
67 | ATCAACAT | 0.238
68 | CTAGCGAG | -0.177
69 | AGGTAAGA | 0.034
70 | ATTTTCAC | 0.226
71 | TGCCTCCA | -0.217
72 | CAGCGTGC | -0.0882
73 | CCAGTCCC | -0.204
74 | CTAGAGAC | -0.0751
75 | AACTACCG | 0.0353

Row | Sequence | PBM E-score
76 | CTCGGAAG | -0.0159
77 | GACCTCTC | 0.0317
78 | GATAAACC | 0.236
79 | GGGGTTGA | -0.0394
80 | ACATGTGC | -0.147
81 | CGGGTCGA | -0.175
82 | CCTACCGA | -0.1
83 | AAAGGGTG | -0.082
84 | GATGCTGC | -0.0182
85 | ACGGATTG | -0.00563
86 | CGTTGGCA | -0.13
87 | AACATCGT | 0.00721
88 | ACCGTGTG | -0.114
89 | GAGGTCTA | -0.0889
90 | AATTACTC | 0.328
91 | CGCAATCC | 0.00791
92 | GTTAGGCA | -0.00649
93 | ACTGTCAG | -0.0137
94 | ACCCCTCT | -0.199
95 | AGCTAGAG | -0.0778
96 | CGGCTTTC | -0.147
97 | ACTCCTTC | -0.074
98 | CCAAATAG | 0.141
99 | CTGAAAAC | 0.0496
100 | CGGTGTAC | -0.192

Row | Sequence | PBM E-score
101 | CATAAATA | 0.169
102 | GAGGTATC | -0.186
103 | TCGAACGA | -0.133
104 | ATACTGAC | 0.166
105 | AACGAGCC | -0.148
106 | AGGACTCC | -0.193
107 | AGCTTGCC | -0.231
108 | CGCCCCAC | -0.171
109 | AGTATATA | 0.389
110 | GCGATGGA | -0.0765
111 | CCACTAGA | -0.154
112 | CCGGCTAC | -0.152
113 | AGACTGTC | -0.167
114 | ACGTGGAG | -0.0122
115 | CCCACGAG | -0.05
116 | CTTGCCTC | -0.182
117 | CCTCTTCG | -0.0407
118 | ATGCCCTA | -0.0692
119 | CTGACGCC | -0.259
120 | AAAGGTAG | -0.0571
121 | CTGCCCCC | -0.314
122 | ACCACCTA | -0.178
123 | ATCCCTAG | 0.0382
124 | ACGCGGTC | -0.106
125 | CACTGAAC | 0.171

Row | Sequence | PBM E-score
126 | GCATTGCA | 0.00754
127 | AAGGGCAC | -0.249
128 | CGGAGTCC | -0.107
129 | CGCGGCTA | 0.0286
130 | ACGCAACC | -0.138
131 | AGCTCATG | 0.0152
132 | CTCTAAAG | -0.0599
133 | ACTCATAA | 0.16
134 | AAGAGCCA | -0.0198
135 | GACACATC | -0.11
136 | CCTTTTAA | -0.0359
137 | CTGCGATA | -0.0208
138 | GGGATGTA | 0.00478
139 | AAGAGACC | 0.0597
140 | ATCCAATG | 0.0291
141 | CTCATGGA | -0.0851
142 | GGGGAAAC | -0.083
143 | ACGACCGA | -0.0431
144 | GTATTGAC | 0.0204
145 | GACACTCC | -0.0616
146 | CCAGGAGC | -0.302
147 | CAATCGAA | 0.0884
148 | CAAGCCCA | -0.18
149 | TAGAGGCA | -0.0846
150 | GTTTCTCA | 0.0503

Row | Sequence | PBM E-score
151 | AACTGGTG | -0.23
152 | CACCATCA | 0.0127
153 | AAGCTGGA | -0.132
154 | TAAAGGGA | -0.0178
155 | AGATACGG | 0.021
156 | AAGTCCGA | 0.00405
157 | GATATAGC | 0.156
158 | ATCATTCG | 0.119
159 | TACCAGCA | 0.08
160 | CACCATAA | 0.123
161 | GGGAGCAC | -0.195
162 | GTATTTTA | 0.23
163 | GTCTAGGA | 0.0443
164 | AGGTGTGG | -0.277
165 | ACCTGTGA | 0.102
166 | AGATGGCG | 0.17
167 | ATAAGTCA | 0.265
168 | TCTGAGAA | 0.0455
169 | ACTTATAA | 0.305
170 | CAAGCCCG | -0.186
171 | ATCGCGAG | 0.0733
172 | AGTAGCAG | 0.0821

Reference: the supplement of paper PMC3334620
